Legend:
Assay type in all cases: cell-based, human
Nalm6-luc cells = experiment: RTCC assay with BBMs (Example 2)
Method: (§1) A RTCC assay with the BBMs of Example 1A was performed to measure the ability of the BBMs to elicit RTCC against CD19+ Nalm6-luc and Karpas422-luc cells. Nalm-6 is a human B cell precursor leukemia cell line and Karpas422 is a human B-cell non-hodgkin lymphoma cell line. Briefly, Nalm6 and Karpas422 cells engineered to express the firefly luciferase reporter gene were cultured in RPM 11640 culture media with 10% fetal bovine serum (FBS). 10,000 target cells with serial diluted BBMs or gH isotype antibody control (αgH-CD3hi) were seeded on 384-well flat-bottom microtiter plate. Primary human T cells were isolated from cryopreserved peripheral blood mononuclear cells (PBMCs) and expanded using anti-CD3 and anti-CD28 dynabeads (Thermo fisher, catalog #11131 D) and subsequently cryopreserved. Expanded T cells were thawed and aliquoted to the plate to achieve an effector cell (i.e., T cell) to target cell (i.e., cancer cell) ratio (E:T ratio) of 3:1. Plates were incubated in a 37° C. incubator with 5% CO2 overnight. Following the co-incubation, Bright Glo (Promega, catalog #E2620) was added to all wells and the luminescence signal was subsequently measured on an Envision (Perkin Elmer). Target cells with Bright Glo served as maximal signal. The percent RTCC of target cells was calculated using the following formula: [100−(sample/maximal signal)*100%].

Karpas422-luc cells = experiment: RTCC assay with BBMs (Example 2)
Method: as §1

[1] = test system: T cells co-cultured with Karpas422 or Nalm-6 target cells; experiment: BBM-induced T cell proliferation, Cell Trace Violet dilution (Example 3); details: E:T 1:1, 96 hrs, 16 pM-10,000 pM
Method: The BBMs described in Example 1A, containing the variable regions of NEG258 and NEG218, were evaluated for their ability to induce T cell proliferation upon co-culture with CD19 expressing target cells. Briefly, Karpas422 and Nalm-6 target cells stably expressing firefly luciferase were irradiated on the day of the assay and plated at a density of 60,000 cells per well in a Costar 96 well plate (Corning, Cat #3904) in T Cell Media (TCM) [RPMI-1640 (ThermoFisher Scientific, Cat #11875-085), 10% FBS (Seradigm, Cat #1500-500), 1% L-Glutamine (Thermo Fisher Scientific, Cat #25830-081), 1% Non Essential Amino Acids (Thermo Fisher Scientific, Cat #11140-050),1% Pen/Strep (Thermo Fisher Scientific, Cat #15070063), 1% HEPES (Thermo Fisher Scientific, Cat #15630080), Sodium Pyruvate (Thermo Fisher Scientific, Cat #11360-070), 0.1% Beta-mercaptoethanol (Thermo Fisher Scientific, Cat #21985-023)]. Peripheral blood mononuclear cells (PBMCs) previously isolated from Leukopak donors (Hemacare) and cryopreserved were thawed and Pan T cells were isolated by negative selection using the Pan T cell Isolation Kit, human [Miltenyi Biotec, Cat #130-096-535] following the manufacturer's protocol. […] The samples were then run on BD LSR Fortessa and analyzed using FlowJo to determine % proliferated CD3+ T cells based on CD3 staining and dilution of Cell Trace Violet dye.

B1: NEG258-based BBM: bispecific of Example 1A: NEG258 anti-CD19 half antibody and CD3hi anti-CD3 scFv-Fc, knob-into-hole (antibody)
heavy: QVQLVQSGAEVKKPGASVKVSCKASGYTFTTYWIQWVRQAPGQRLEWMGAVYPGDADTRYTQKFQGRVTLTADRSASTAYMELSSLRSEDTAVYYCGRDAGLEYYALDYWGQGTLVTVSSASTKGPSVFPLAPSSKSTSGGTAALGCLVKDYFPEPVTVSWNSGALTSGVHTFPAVLQSSGLYSLSSVVTVPSSSLGTQTYICNVNHKPSNTKVDKRVEPKSCDKTHTCPPCPAPELLGGPSVFLFPPKPKDTLMISRTPEVTCVVVAVSHEDPEVKFNWYVDGVEVHNAKTKPREEQYASTYRVVSVLTVLHQDWLNGKEYKCKVSNKALAAPIEKTISKAKGQPREPQVCTLPPSREEMTKNQVSLSCAVKGFYPSDIAVEWESNGQPENNYKTTPPVLDSDGSFFLVSKLTVDKSRWQQGNVFSCSVMHEALHNHYTQKSLSLSPGK
light: EIVMTQSPATLSVSPGERATLSCRASQDVGTAVAWYQQKPGQAPRLLIYWASTRHTGIPARFSGSGSGTEFTLTISSLQSEDFAVYFCQQYANFPLYTFGQGTKLEIKRTVAAPSVFIFPPSDEQLKSGTASVVCLLNNFYPREAKVQWKVDNALQSGNSQESVTEQDSKDSTYSLSSTLTLSKADYEKHKVYACEVTHQGLSSPVTKSFNRGEC
chain: EVQLVESGGGLVQPGGSLKLSCAASGFTFNTYAMNWVRQASGKGLEWVGRIRSKYNNYATYYADSVKDRFTISRDDSKSTLYLQMNSLKTEDTAVYYCVRHGNFGNSYVSWFAYWGQGTLVTVSSGGGGSGGGGSGGGGSGGGGSQAVVTQEPSLTVSPGGTVTLTCRSSTGAVTTSNYANWVQQKPGQAPRGLIGGTNKRAPWTPARFSGSLLGDKAALTLSGAQPEDEAEYFCALWYSNLWVFGGGTKLTVLGGGGSDKTHTCPPCPAPELLGGPSVFLFPPKPKDTLMISRTPEVTCVVVAVSHEDPEVKFNWYVDGVEVHNAKTKPREEQYASTYRVVSVLTVLHQDWLNGKEYKCKVSNKALAAPIEKTISKAKGQPREPQVYTLPPCREEMTKNQVSLWCLVKGFYPSDIAVEWESNGQPENNYKTTPPVLDSDGSFFLYSKLTVDKSRWQQGNVFSCSVMHEALHNRYTQKSLSLSPGK
redirected T-cell cytotoxic activity (RTCC) (Nalm6-luc cells): mediated RTCC activity | redirected T-cell cytotoxic activity (RTCC) (Karpas422-luc cells): mediated RTCC activity | T cell proliferation (% proliferated CD3+ T cells) [1]: more potent activity than the NEG218-based BBM
